The campaign covered roughly 150,000 compounds. About 540 (0.36%) showed an effect of 50% or more. This is one part of the list.

This note sets out measurements from ChEMBL document CHEMBL4888484, “Replenishing the malaria drug discovery pipeline: Screening and hit evaluation of the MMV Hit Generation Library 1 (HGL1) against asexual blood stage Plasmodium falciparum ,using a nano luciferase reporter read-out” (2022).

The test system of the assay is Plasmodium falciparum. Description: Primary screen in NF54 nanoGlo assay, in single point, at 2uM, 72h; a lower Z score goes with more inhibition. In kind it is functional, Erythrocyte. As to conditions: timepoint 72 hour.
Turning to `COc1ccc(CCNC(=O)c2cc(-c3cc(Cl)ccc3Cl)oc2C)cc1OC`, the “% Inhibition” value is given as -8% and the Z score came out at 1.01.
Turning to `O=C(Nc1ccc(-n2cc[nH]c2=O)cc1)c1ccc2ccccc2n1`, the “% Inhibition” value is -5% and the Z score is 0.45.
Take `CC[C@@H](C(=O)NC1CCN(C)CC1)N(c1cc(Cl)ccc1C)S(C)(=O)=O`: the “% Inhibition” value is on record as -6% and the Z score stood at 1.12.
For `O=C(c1n[nH]c2c1CCC2)N1CCC(n2cc(-c3ccsc3)nn2)CC1`, the “% Inhibition” value was -26% and the Z score stood at 3.85.
Regarding `COc1cccc(-c2nc(C)c(C(=O)Nc3nc(C(C)C)n[nH]3)s2)c1`, the “% Inhibition” value turned out to be 68% and the Z score is recorded as -7.28.
With `COc1cccc(Nc2ncnc3sc(C)c(S(=O)(=O)N4CCCCC4)c23)c1`, the “% Inhibition” value was 0% and the Z score is 0.06.
In the case of `Cc1cc2nc(C(=O)NCCc3c[nH]c4ccccc34)cc(C)n2n1`, the “% Inhibition” value was -6% and the Z score came to 1.11.
In the case of `OC1(c2nc(Cc3csc(-c4ccccc4)n3)no2)CCCC1`, the “% Inhibition” value is recorded as -4% and the Z score was found to be 0.38.
Take `COCC(O)CNC(c1ccc(OC)cc1F)C(C)C` (stereo not drawn): the “% Inhibition” value is listed as 10% and the Z score is on record as -1.29.
For `COc1ccc(CCC(=O)N2CCC[C@@H]2C(=O)NCCc2csc(C)n2)cc1`, the “% Inhibition” value is given as -5% and the Z score amounted to 0.66.
The matching figures for `Cc1cc(-c2noc(COC(C)(C)C(F)(F)F)n2)cc2nc[nH]c12`: -13% and 1.19.
In the case of `Cc1cccc(CC(=O)N2C3CCC2Cn2c(n[nH]c2=O)C3)c1` (stereo not drawn), the “% Inhibition” value amounted to 4% and the Z score was -0.52.
`Cn1cnnc1NC(=O)C1(Cc2cccc(F)c2)CCCCC1`: the “% Inhibition” value is recorded as -2% and the Z score came out at 0.42.
On the same counts, the results for `COc1cccc(CN2C[C@@H](C(=O)NCc3cccnc3)CC2=O)c1` are -7% and 0.79.
On the same counts, the results for `CN=C(NCCC1CC1)NC1CCCC1` are -3% and 0.29.
On the same counts, the results for `Cc1ccccc1Cn1nc(CC(N)=O)nc1CCc1cnccn1` are -14% and 1.72.
As to `CC1CN(C(=O)C2CCOCC2)CCC1c1ccccc1` (stereo not drawn), the “% Inhibition” value turned out to be 4% and the Z score is reported as -0.42.
Consider `Cc1[nH][nH]c(=O)c1[C@H](CC(N)=O)c1ccc2ncccc2c1`, for which the “% Inhibition” value is on record as -6% and the Z score is 0.82.
The matching figures for `O=C([C@@H]1CN(c2ncnc3[nH]ccc23)CCN1)N1CCCC1`: 12% and -1.11.
On the same counts, the results for `CCCCCN1CC(=O)N[C@@H]1c1ccc(C)cn1` are -7% and 0.77.
On the same counts, the results for `CCc1cc(C(=O)N2CC(=O)N(CCC(=O)OC)C[C@H](OCc3cccc(OC)c3)C2)n(C)n1` are -4% and 0.75.
As to `Cc1ccc2c(c1)CN(C(=O)Cc1c(C)n[nH]c1C)C(C)(C)C2`, the “% Inhibition” value was -6% and the Z score is 1.04.
The matching figures for `CCc1nnc2n1CCN(C(=O)[C@@H]1COc3ccccc3O1)C2`: -8% and 1.37.
The matching figures for `Cc1nc(N2CCCCC2)n(CCN2CCOCC2)c(=O)c1C`: 6% and -0.62.
As for `COc1ccc(C(=O)N2c3cc(CNC(=O)c4ccc(C)cc4)ccc3C[C@@H]2C)cc1`, the “% Inhibition” value is 18% and the Z score is recorded as -2.09.
On the same counts, the results for `CCN1C[C@@H](Nc2ncnc3ccc(F)cc23)CC1=O` are -6% and 1.24.
Turning to `O=C(CCc1nnc2ccc(N3CCC4(CC3)OCCO4)nn12)Nc1ccccn1`, the “% Inhibition” value is on record as -18% and the Z score was 2.42.
The matching figures for `COc1ccc(-c2ccccc2NC(=O)N2C[C@@H]3CC[C@H](C2)C(=O)N3)cc1`: 2% and -0.15.
Regarding `Cc1cnn(Cc2nccn2C(F)F)c1`, the “% Inhibition” value was determined as 3% and the Z score is listed as -0.36.
As for `CC[C@H](C)Cc1nc(Cc2c(C)noc2C)n(CCO)n1`, the “% Inhibition” value was -9% and the Z score turned out to be 0.92.
On the same counts, the results for `Cc1csc([C@H](C)NC(=O)NCC2(OCCO)CCOCC2)n1` are -2% and 0.26.
The matching figures for `O=C(Nc1ccc(OC(F)F)cn1)N1CCN2C(=O)OCC[C@H]2C1`: 7% and -1.36.
The matching figures for `O=C(c1ccoc1)N1CCC[C@H](Oc2cccnn2)C1`: -10% and 1.14.
`C[C@H](NCC#N)c1ccc(S(C)(=O)=O)c(F)c1`: the “% Inhibition” value amounted to 0% and the Z score was determined as 0.04.
The matching figures for `Cc1cc(NCC2(O)CCS(=O)(=O)CC2)ncc1Br`: -14% and 1.54.
With `CN(C)c1nccnc1NCC1(CN2CCCC2)CC1`, the “% Inhibition” value is given as -7% and the Z score was found to be 1.1.
On to `O=C(CNCc1cccc(Br)c1)NC1CC1`, for which the “% Inhibition” value is -25% and the Z score amounted to 2.29.
The matching figures for `Cc1c(NC(=O)Cc2noc3ccccc23)cccc1C(=O)N1CCc2sccc2C1`: -10% and 1.16.
For `O=C(Nc1cccc(-c2nc3cc(Cl)ccc3o2)c1)c1cccs1`, the “% Inhibition” value was 11% and the Z score was -1.45.
The matching figures for `CCOc1cc2c(cc1OCC)[C@@H]1CC(=O)N(c3ccc(C)cc3)C(=O)N1CC2`: -4% and 0.64.
The matching figures for `CCC/C(=C\n1ccnc1)c1ccccc1Cl`: -41% and 4.75.
On to `O=C(Nc1ccc2c(c1)C(O)=Nc1cccnc1O2)c1ccc(F)c(Cl)c1`, for which the “% Inhibition” value turned out to be 19% and the Z score is -1.98.
On the same counts, the results for `CCOc1ccc(-c2n[nH]cc2CN2C[C@@H]3CCN(S(C)(=O)=O)C[C@]3(CF)C2)cc1` are -5% and 0.96.
As to `Cc1nnc(CN2CCC[C@H]2C(=O)N2CCCCC2)o1`, the “% Inhibition” value is 8% and the Z score is listed as -1.16.
The matching figures for `O=c1[nH]c(N2CCCCC2)nc2nccc(-c3ccc4ccccc4c3)c12`: -8% and 1.12.
On the same counts, the results for `Cc1nccn1[C@@H](C)C(=O)NCc1nccn1C(C)C` are 6% and -1.12.
Take `CCNS(=O)(=O)[C@H]1CCN(C(=O)c2ccc(C)s2)C1`: the “% Inhibition” value is given as -13% and the Z score is 1.31.
On the same counts, the results for `Cc1cccc(-c2noc(CS(=O)(=O)C(C)C(=O)NC3CCCC(C)C3C)n2)c1` (stereo not drawn) are -1% and 0.13.
Consider `CC(CC(=O)N1CC(O)CC1c1ccc(C(F)(F)F)cc1)c1ccccc1C(F)(F)F` (stereo not drawn), for which the “% Inhibition” value is given as -3% and the Z score stood at 0.33.
Consider `O=C(NS(=O)(=O)c1ccc2[nH]nnc2c1)C1CCC2CC2C1` (stereo not drawn), for which the “% Inhibition” value is -5% and the Z score is on record as 0.53.
For the molecule `Cn1cccc1CN(C(=O)c1cc2ccccc2[nH]1)C1CC1`, the “% Inhibition” value is -5% and the Z score is recorded as 1.
On the same counts, the results for `N#Cc1c(NCCC(=O)NCc2ccccc2)nc2ccccn12` are -4% and 0.48.
For the molecule `Cc1oc(C(C)C)cc1C(=O)NCC[C@H]1CCCN(C)C1`, the “% Inhibition” value is listed as -19% and the Z score is 2.44.
On the same counts, the results for `CN(C(=O)C1CCC(C(=O)N(C)c2ccccc2)CC1)c1ccccc1` (stereo not drawn) are -16% and 1.32.

One may read the % Inhibition as the change of the read-out against control, counted positive when it falls.
